Drawing on article PMC4802617, “Kinetics of cytochrome P450 enzymes for metabolism of sodium tanshinone IIA sulfonate in vitro” (Chinese Medicine, 2016), this text covers Km and kcat for one protein.

Substrate in this data set: Cc1c(S(=O)(=O)O)oc2c1C(=O)C(=O)c1c-2ccc2c1CCCC2(C)C
Nature of the data set: not read. The following applies: other: STS metabolism, CYP3A4 isoform 10 pmol, mean ± SD; pH 7.4; 37.0 °C.

B1: CYP3A4 (Homo sapiens) (protein)
chain: MALIPDLAMETWLLLAVSLVLLYLYGTHSHGLFKKLGIPGPTPLPFLGNILSYHKGFCMFDMECHKKYGKVWGFYDGQQPVLAITDPDMIKTVLVKECYSVFTNRRPFGPVGFMKSAISIAEDEEWKRLRSLLSPTFTSGKLKEMVPIIAQYGDVLVRNLRREAETGKPVTLKDVFGAYSMDVITSTSFGVNIDSLNNPQDPFVENTKKLLRFDFLDPFFLSITVFPFLIPILEVLNICVFPREVTNFLRKSVKRMKESRLEDTQKHRVDFLQLMIDSQNSKETESHKALSDLELVAQSIIFIFAGYETTSSVLSFIMYELATHPDVQQKLQEEIDAVLPNKAPPTYDTVLQMEYLDMVVNETLRLFPIAMRLERVCKKDVEINGMFIPKGVVVMIPSYALHRDPKYWTEPEKFLPERFSKKNKDNIDPYIYTPFGSGPRNCIGMRFALMNMKLALIRVLQNFSFKPCKETQIPLKLSLGGLLQPEKPVVLKVESRDGTVSGA
In general, Km refers to the concentration of substrate that gives half-maximal velocity. Turning to B1, the Km is reported as 7.5 ± 1.4 µM and the kcat was 6.8 ± 0.3 nmol/nmol P450/min.
